# In the supplement of paper PMC11369174, “Proteome-scale characterisation of motif-based interactome rewiring by disease mutations” (Molecular Systems Biology, 2024):
# The other results are listed elsewhere or left out. The data scatter; read single values as rough.
# T1: DOK1_PTB__Q99704_151_256
# T1 chain: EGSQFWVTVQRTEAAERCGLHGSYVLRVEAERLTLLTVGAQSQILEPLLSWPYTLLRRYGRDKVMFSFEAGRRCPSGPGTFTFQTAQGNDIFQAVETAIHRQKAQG
# T2: MSN_FERM_1_P26038_1_322
# T2 chain: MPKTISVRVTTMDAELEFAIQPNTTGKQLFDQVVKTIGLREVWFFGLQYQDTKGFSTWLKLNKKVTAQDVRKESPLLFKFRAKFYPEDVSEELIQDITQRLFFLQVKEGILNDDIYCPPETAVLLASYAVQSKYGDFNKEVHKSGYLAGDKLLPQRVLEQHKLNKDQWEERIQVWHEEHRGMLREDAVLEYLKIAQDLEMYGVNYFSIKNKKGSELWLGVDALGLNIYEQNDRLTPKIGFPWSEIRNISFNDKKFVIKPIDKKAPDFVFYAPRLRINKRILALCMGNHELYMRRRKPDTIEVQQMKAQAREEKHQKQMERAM
# T3: RDX_FERM_1_P35241_5_295
# T3 chain: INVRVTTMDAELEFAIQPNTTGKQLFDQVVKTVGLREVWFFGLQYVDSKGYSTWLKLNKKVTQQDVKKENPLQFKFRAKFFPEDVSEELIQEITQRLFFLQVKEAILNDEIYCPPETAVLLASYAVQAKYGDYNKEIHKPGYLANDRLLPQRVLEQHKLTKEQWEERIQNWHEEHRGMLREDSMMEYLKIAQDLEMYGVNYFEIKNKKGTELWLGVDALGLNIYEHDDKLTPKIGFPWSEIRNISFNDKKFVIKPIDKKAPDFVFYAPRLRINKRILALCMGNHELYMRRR
# T4: IRS2_PTB__Q9Y4H2_188_304
# T4 chain: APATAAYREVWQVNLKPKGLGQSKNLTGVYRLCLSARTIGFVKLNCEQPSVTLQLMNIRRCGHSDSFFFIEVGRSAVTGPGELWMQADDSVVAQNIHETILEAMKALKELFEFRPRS
# T5: EIF3B_RRM__P55884_172_274
# T5 chain: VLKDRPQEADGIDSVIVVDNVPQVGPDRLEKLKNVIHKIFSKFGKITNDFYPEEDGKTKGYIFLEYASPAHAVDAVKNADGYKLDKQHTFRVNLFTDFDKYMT
# T6: EPHB2_Pkinase__P29323_604_898
# T6 chain: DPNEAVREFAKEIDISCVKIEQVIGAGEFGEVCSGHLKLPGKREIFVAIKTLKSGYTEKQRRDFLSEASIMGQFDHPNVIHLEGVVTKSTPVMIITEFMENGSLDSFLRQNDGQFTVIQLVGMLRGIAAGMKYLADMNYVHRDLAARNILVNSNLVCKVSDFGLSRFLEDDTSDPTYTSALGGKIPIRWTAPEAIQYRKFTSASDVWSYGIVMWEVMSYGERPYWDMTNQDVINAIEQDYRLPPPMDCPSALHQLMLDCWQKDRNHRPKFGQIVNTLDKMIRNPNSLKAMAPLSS
# Assays:
# Test in all cases: mutation enrichment score (mutant vs wild-type peptide binding to bait); baits are purified protein domains named by gene / domain / UniProt id / residues; peptides come from disordered regions of human proteins; higher = mutation enhances binding relative to wild type
# [1] = molecular target: T1, DOK1_PTB__Q99704_151_256; details: number of wild-type / mutant comparisons summed (bounds the score): 5; paper call: no_effect; wild-type window: …
# [2] = molecular target: EZR_FERM_1_P15311_2_295; details: number of wild-type / mutant comparisons summed (bounds the score): 5; paper call: no_effect; wild-type window: …
# [3] = molecular target: T2, MSN_FERM_1_P26038_1_322; details: number of wild-type / mutant comparisons summed (bounds the score): 6; paper call: no_effect; wild-type window: …
# [4] = molecular target: T3, RDX_FERM_1_P35241_5_295; details: number of wild-type / mutant comparisons summed (bounds the score): 6; paper call: no_effect; wild-type window: …
# [5] = molecular target: DMD_WW-EF__P11532_3055_3088; details: wild-type window: …
# [6] = molecular target: NEDD4_WW_2_P46934_765_803; details: wild-type window: …
# [7] = molecular target: WWTR1_WW__Q9GZV5_122_160; details: wild-type window: …
# [8] = molecular target: EIF4E_eIF4E__P06730_1_217, P06730; details: wild-type window: …
# [9] = molecular target: Src_SH3__P12931_87_144; details: number of wild-type / mutant comparisons summed (bounds the score): 12; paper call: no_effect; wild-type window: …
# [10] = molecular target: SMURF2_WW_3_Q9HAU4_298_330; details: number of wild-type / mutant comparisons summed (bounds the score): 12; paper call: enhanced; wild-type window: …
# [11] = molecular target: T4, IRS2_PTB__Q9Y4H2_188_304; details: number of wild-type / mutant comparisons summed (bounds the score): 6; paper call: no_effect; wild-type window: …
# [12] = molecular target: T5, EIF3B_RRM__P55884_172_274; details: number of wild-type / mutant comparisons summed (bounds the score): 6; paper call: no_effect; wild-type window: …
# [13] = molecular target: MAP1LC3A_ATG8__Q9H492_2_121; details: number of wild-type / mutant comparisons summed (bounds the score): 12, wild-type window: …
# [14] = molecular target: MAP1LC3B_ATG8__Q9GZQ8_2_119; details: number of wild-type / mutant comparisons summed (bounds the score): 12, wild-type window: …
# [15] = molecular target: T6, EPHB2_Pkinase__P29323_604_898; details: number of wild-type / mutant comparisons summed (bounds the score): 6; paper call: no_effect; wild-type window: …
# [16] = number of wild-type / mutant comparisons summed (bounds the score): 6, paper call: no_effect
# [17] = number of wild-type / mutant comparisons summed (bounds the score): 12, paper call: enhanced
# Chain of EIF4E_eIF4E__P06730_1_217, P06730 (P06730 whole entry): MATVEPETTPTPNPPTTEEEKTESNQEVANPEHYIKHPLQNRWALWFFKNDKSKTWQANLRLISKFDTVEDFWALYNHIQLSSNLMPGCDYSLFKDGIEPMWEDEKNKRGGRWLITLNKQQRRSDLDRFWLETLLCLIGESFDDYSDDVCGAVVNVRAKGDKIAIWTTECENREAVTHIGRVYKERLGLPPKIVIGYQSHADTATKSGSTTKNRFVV
# Chain of WWTR1_WW__Q9GZV5_122_160 (chain, as listed by the source): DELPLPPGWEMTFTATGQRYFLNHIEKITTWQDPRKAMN
# Chain of NEDD4_WW_2_P46934_765_803 (chain, as listed by the source): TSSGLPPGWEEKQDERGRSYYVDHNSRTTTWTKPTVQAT
# Chain of EZR_FERM_1_P15311_2_295 (chain, as listed by the source): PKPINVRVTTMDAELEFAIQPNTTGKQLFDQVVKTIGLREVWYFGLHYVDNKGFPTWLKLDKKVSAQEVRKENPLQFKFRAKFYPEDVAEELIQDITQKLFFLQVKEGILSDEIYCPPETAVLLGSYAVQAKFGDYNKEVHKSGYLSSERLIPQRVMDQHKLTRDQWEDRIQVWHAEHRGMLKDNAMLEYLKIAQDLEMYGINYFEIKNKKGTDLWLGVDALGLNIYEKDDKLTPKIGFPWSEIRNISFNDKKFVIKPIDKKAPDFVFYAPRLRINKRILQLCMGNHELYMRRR
binder,measurement,setting,value
DELDCLIKGILYIDSVGFNGWSQCYYFENPADSEKCQKLPF [R357W R357W],mutation enrichment score,[1],5
same,mutation enrichment score,[2],5
same,mutation enrichment score,[3],5.3
same,mutation enrichment score,[4],3.8
PEAPPLDRVFRTTWLSTECDFHPLPPSYRKFLFETQAADLA [S24F S24F],mutation enrichment score,[5]; [16],-3.3
same,mutation enrichment score,[6]; [16],-3.9
same,mutation enrichment score,[7]; [16],-3.8
WMHYYVSMDALLGGSEIWRDTDFAHEAPAFLPWHRLFLLRW [I198T I198T],mutation enrichment score,[1],-4.9
KTMSGTFLLRFSESSEGGITWSWVEHQDDDKVLIYSVQPYT [C612W C612W],mutation enrichment score,[1],5
MHYYVSMDALLGGSEIWRDINFAHEAPAFLPWHRLFLLRWE [D199N D199N],mutation enrichment score,[1],-1.8
SPQAPGSPEDSEGVPLISLPCVPQGGSQPGPSRGLSLMSSQ [R1839C R1839C],mutation enrichment score,[8]; [16],2
same,mutation enrichment score,[9],4
ENSSPEKTDATSSTTSPPSYASVTKPDKEKYEQDRTEKEDK [D1959A D1959A],mutation enrichment score,[5]; [17],10
same,mutation enrichment score,"[6]; number of wild-type / mutant comparisons summed (bounds the score): 18, paper call: enhanced",11
same,mutation enrichment score,[10],11
same,mutation enrichment score,[7]; [17],11
LTLFVNGQPRPLESSQVKYLHRELIELRNKVNRLLDSLEPP [R106H R106H],mutation enrichment score,"[8]; number of wild-type / mutant comparisons summed (bounds the score): 6, paper call: diminished",-6
LTLFVNGQPRPLESSQVKYLCRELIELRNKVNRLLDSLEPP [R106C R106C],mutation enrichment score,"[8]; number of wild-type / mutant comparisons summed (bounds the score): 12, paper call: no_effect",0.52
VHKRRYLLQPIAVEVFSGDGWNYLLAFQKGIRNKVYQRFLA [R2637W R2637W],mutation enrichment score,[1],5
same,mutation enrichment score,[11],4
AHFENRKKEEEELVSLKDRIKRRRAERAEQQRIRNEREKER [E138K E138K],mutation enrichment score,[12],-4
FIIIVFGFWAFGKHSAAADIISSLSEDQVPGPFLVMVLIQF [T2221I T2221I],mutation enrichment score,[8]; [16],2
RVPERLLFIIDGFDELKPSFYDPQGPWCLCWEEKRPTELLL [H304Y H304Y],mutation enrichment score,"[8]; number of wild-type / mutant comparisons summed (bounds the score): 6, paper call: enhanced",6
VSAALQVTQTLQWVVRNWTDIENSIVSVERMQDYAWTPKEA [L1226I L1226I],mutation enrichment score,[1],-1
same,mutation enrichment score,[12],-4
same,mutation enrichment score,[13]; paper call: diminished,-9.5
same,mutation enrichment score,[14]; paper call: diminished,-8.5
DHFDTYADALWWGLITLTTICYGDKYPQTWNGRLLAATFTL [G279C G279C],mutation enrichment score,[8]; [16],1
same,mutation enrichment score,[15],-1
TLQWVVRNWTDLENSIVSVEGMQDYAWTPKEAPWRLPTCAA [R1235G R1235G],mutation enrichment score,[1],-5
same,mutation enrichment score,[12],-3.9
same,mutation enrichment score,[13]; paper call: diminished,-10
same,mutation enrichment score,[14]; paper call: diminished,-9
TLQWVVRNWTDLENSIVSVEWMQDYAWTPKEAPWRLPTCAA [R1235W R1235W],mutation enrichment score,[1],-5
same,mutation enrichment score,[12],-4
same,mutation enrichment score,[13]; paper call: no_effect,-3.5
same,mutation enrichment score,[14]; paper call: no_effect,-4.2
